According to patent US11814447B2, “Peptide ligands for binding to EphA2” (BICYCLERD LIMITED, priority 2018, dated 2023):
Where two headings read alike, the source gives them in different places.

Assays:
Human EphA2 [1] = molecular target: T1, Human EphA2 (Homo sapiens, UniProt P29317); test: Fluorescence polarisation direct binding assay; settings: read-out: KD, nM ± 95% CI Human EphA2; Table 5
T1 construct: EphA2 (Ecto); polyHis (C)

Human EphA2 [2] = molecular target: T1, Human EphA2; test: Fluorescence polarisation competition binding assay
Description: 1. Fluorescence Polarisation Measurements
(b) Competition Binding Assay
Peptides without a fluorescent tag were tested in competition with a peptide with a fluorescent tag and a known Kd (Table 2). Peptides were diluted to an appropriate concentration in assay buffer as described in the direct binding assay with a maximum of 5% DMSO, then serially diluted 1 in 2. […] Measurements were conducted as for the direct binding assay, however the gain was determined prior to the first measurement. Data analysis was in Systat Sigmaplot version 12.0 where the mP values were fit to a user defined cubic equation to generate a Ki value: f=y min+(y max−y min)/Lig*((Lig*((2*((Klig+Kcomp+Lig+Comp−Prot*c)^2−3*(Kcomp*(Lig−Prot*c)+Klig*(Comp−Prot*c)+Klig*Kcomp))^0.5*COS(ARCCOS((−2*(Klig+Kcomp+Lig+Comp−Prot*c)^3+9*(Klig+Kcomp+Lig+Comp−Prot*c)*(Kcomp*(Lig−Prot*c)+Klig*(Comp−Prot*c)+Klig*Kcomp)−27*(−1*Klig*Kcomp*Prot*c))/(2*(4(Klig+Kcomp+Lig+Comp−Prot*c)^2−3*(Kcomp*(Lig−Prot*c)+Klig*(Comp−Prot*c)+Klig*Kcomp))^3)^0.5)))/3))−(Klig+Kcomp+Lig+Comp−Prot*c)))/((3*Klig)+42*((Klig+Kcomp+Lig+Comp−Prot*c)^2−3*(Kcomp*(Lig−Prot*c)+Klig*(Comp−Prot*c)+Klig*Kcomp))^0.5*COS(ARCCOS((−2*(Klig+Kcomp+Lig+Comp−Prot*c)^3+9*(Klig+Kcomp+Lig+Comp−Prot*c)*(Kcomp*(Lig−Prot*c)+Klig*(Comp−Prot*c)+Klig*Kcomp)−27*(−1*Klig*Kcomp*Prot*c))/(2*(4(Klig+Kcomp+Lig+Comp−Prot*c)^2−3*(Kcomp*(Lig−Prot*c)+Klig*(Comp−Prot*c)+Klig*Kcomp))^3)^0.5)))/3))−(Klig+Kcomp+Lig+Comp−Prot*c)))).
“Lig”, “KLig” and “Prot” were all defined values relating to: fluorescent peptide concentration, the Kd of the fluorescent peptide and EphA2 concentration respectively.

[3] = read-out: Ki, nM ± 95% CI Human EphA2 Fluorescent Peptide Compound 66, Table 6, fluorescent peptide Compound 66
[4] = read-out: Human EphA2 (Ki, nM ± 95% CI) Fluorescent Peptide Compound 66, Table 4, fluorescent peptide Compound 66
[5] = read-out: Ki, nM ± 95% CI Human EphA2 Fluorescent peptide Compound 66, Table 9, Ala scan peptides, fluorescent peptide Compound 66
[6] = read-out: Human EphA2 (Ki, nM ± 95% CI) Fluorescent Peptide Compound 18, Table 4, fluorescent peptide Compound 18

T1 sequence (P29317 24-537 limits assumed): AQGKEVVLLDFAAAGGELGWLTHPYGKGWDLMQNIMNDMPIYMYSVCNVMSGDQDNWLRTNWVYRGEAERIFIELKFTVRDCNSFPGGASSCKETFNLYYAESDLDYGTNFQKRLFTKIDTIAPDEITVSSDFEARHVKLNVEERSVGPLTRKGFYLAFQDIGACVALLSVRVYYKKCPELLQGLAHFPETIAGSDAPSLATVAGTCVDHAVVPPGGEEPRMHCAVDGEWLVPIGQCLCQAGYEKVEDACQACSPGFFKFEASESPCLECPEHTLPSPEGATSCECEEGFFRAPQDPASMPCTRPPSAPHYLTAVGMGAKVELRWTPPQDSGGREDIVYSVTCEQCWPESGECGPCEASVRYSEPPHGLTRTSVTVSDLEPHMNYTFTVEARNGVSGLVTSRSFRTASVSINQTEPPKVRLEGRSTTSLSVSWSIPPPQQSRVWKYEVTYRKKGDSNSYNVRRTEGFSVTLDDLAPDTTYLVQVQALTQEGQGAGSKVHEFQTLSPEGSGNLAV

CC(C)[C@@H]1NC(=O)[C@@H]2CCCN2C(=O)[C@@H]2CSCc3cc(cc(c3)CSC[C@H](NC(=O)[C@H](C)NC(=O)CN(C)C(=O)CN(C)C(=O)CN(C)C(=O)CN(C)C(=O)CN(C)C(=O)CN(C)C(=O)CN(C)C(=O)CN(C)C(=O)CN(C)C(=O)CN(C)C(=O)CCNC(=O)c3ccc4c(c3)C(=O)OC43c4ccc(N)c(S(=O)(=O)O)c4Oc4c3ccc(N)c4S(=O)(=O)O)C(=O)N3CCC[C@H]3C(=O)N[C@@H](Cc3c[nH]c4ccccc34)C(=O)NCC(=O)N3CCC[C@H]3C(=O)N[C@@H](Cc3ccccc3)C(=O)N[C@@H](Cc3c[nH]c4ccccc34)C(=O)N2)CSC[C@@H](C(N)=O)NC(=O)CNC(=O)[C@@H]2CCCN2C(=O)[C@H](CCCNC(=N)N)NC(=O)[C@H](CC(N)=O)NC1=O [A68]
Kd (Human EphA2 [1]): 15.4 ± 2.87 nM

CC(C)[C@@H]1NC(=O)[C@@H]2CCCN2C(=O)[C@@H]2CSCc3cc(cc(c3)CSC[C@H](NC(=O)[C@H](C)NC(=O)CN(C)C(=O)CN(C)C(=O)CN(C)C(=O)CN(C)C(=O)CN(C)C(=O)CN(C)C(=O)CN(C)C(=O)CN(C)C(=O)CN(C)C(=O)CN(C)C(=O)CCN)C(=O)N3CCC[C@H]3C(=O)N[C@@H](Cc3c[nH]c4ccccc34)C(=O)NCC(=O)N3CCC[C@H]3C(=O)N[C@@H](Cc3ccccc3)C(=O)N[C@@H](Cc3c[nH]c4ccccc34)C(=O)N2)CSC[C@@H](C(N)=O)NC(=O)CNC(=O)[C@@H]2CCCN2C(=O)[C@H](CCCNC(=N)N)NC(=O)[C@H](CC(N)=O)NC1=O [A72]
Ki (Human EphA2 [2]; [3]): 21 ± 2.18 nM

CC[C@H](C)[C@@H]1NC(=O)CNC(=O)[C@H](CCC(N)=O)NC(=O)[C@@H]2CCCN2C(=O)[C@H](C(C)C)NC(=O)[C@@H](NC(=O)[C@H](C)N)CSCc2cc3cc(c2)CSC[C@@H](C(=O)N[C@@H](C)C(N)=O)NC(=O)[C@@H]2CCCN2C(=O)[C@H](CCC(=O)O)NC(=O)[C@H](Cc2ccc(O)cc2)NC(=O)[C@H](CCCNC(=N)N)NC(=O)[C@H](CC(C)C)NC(=O)[C@H](C)NC(=O)[C@H](CSC3)NC(=O)[C@H](Cc2c[nH]c3ccccc23)NC1=O [A65]
Ki (Human EphA2 [2]; [4]): 293 nM

CC(C)[C@@H]1NC(=O)[C@@H]2CCCN2C(=O)[C@@H]2CSCc3cc(cc(c3)CSC[C@H](NC(=O)[C@H](C)N)C(=O)N3CCC[C@H]3C(=O)N[C@@H](Cc3c[nH]c4ccccc34)C(=O)NCC(=O)N3CCC[C@H]3C(=O)N[C@@H](C)C(=O)N[C@@H](Cc3c[nH]c4ccccc34)C(=O)N2)CSC[C@@H](C(=O)N[C@@H](C)C(N)=O)NC(=O)CNC(=O)[C@H](CC(N)=O)NC(=O)[C@H](CCCNC(=N)N)NC(=O)[C@H](CC(N)=O)NC1=O [A52]
Ki (Human EphA2 [2]; [4]): 168 ± 72.5 nM

CSCC[C@@H]1NC(=O)[C@@H](NC(C)=O)CSCc2cc3cc(c2)CSC[C@H](NC(=O)[C@H](CC(C)C)NC(=O)[C@H](Cc2c[nH]c4ccccc24)NC(=O)[C@H](CC(=O)O)NC(=O)[C@H](CC(N)=O)NC1=O)C(=O)N[C@@H](CO)C(=O)N[C@@H](C)C(=O)NCC(=O)N[C@@H](Cc1c[nH]c2ccccc12)C(=O)N[C@@H]([C@@H](C)O)C(=O)N[C@H](C(N)=O)CSC3 [A27]
Ki (Human EphA2 [2]; [4]): 356 nM
Ki (Human EphA2 [2]; [5]): 356 nM

CC(=O)N[C@H]1CSCc2cc3cc(c2)CSC[C@H](NC(=O)[C@H](CC(C)C)NC(=O)[C@H](Cc2c[nH]c4ccccc24)NC(=O)[C@H](CC(=O)O)NC(=O)[C@H](CC(N)=O)NC(=O)[C@H](C)NC1=O)C(=O)N[C@@H](CO)C(=O)N[C@@H](CC(C)C)C(=O)NCC(=O)N[C@@H](Cc1c[nH]c2ccccc12)C(=O)N[C@@H]([C@@H](C)O)C(=O)N[C@H](C(N)=O)CSC3 [A25]
Ki (Human EphA2 [2]; [4]): 328 nM
Ki (Human EphA2 [2]; [5]): 328 nM

CC(C)[C@H](NC(=O)[C@H](CC(=O)O)NC(=O)[C@H](C)N)C(=O)N[C@@H](CCCNC(=N)N)C(=O)N[C@H](C(=O)N[C@H]1CSCc2cc3cc(c2)CSC[C@H](NC(=O)[C@H](Cc2c[nH]c4ccccc24)NC(=O)[C@H](Cc2ccccc2)NC(=O)[C@@H]2CCCN2C(=O)CNC(=O)[C@H](Cc2c[nH]c4ccccc24)NC(=O)[C@@H]2CCCN2C1=O)C(=O)N1CCC[C@H]1C(=O)N[C@@H](C(C)C)C(=O)N[C@@H](CC(N)=O)C(=O)N[C@@H](CCCNC(=N)N)C(=O)N1CCC[C@H]1C(=O)NCC(=O)N[C@H](C(=O)N[C@@H](C)C(N)=O)CSC3)[C@@H](C)O [A60]
Ki (Human EphA2 [2]; [6]): 12.6 ± 1.29 nM
Ki (Human EphA2 [2]; [4]): 2.5 nM

CC(=O)N(C)CC(=O)N(C)CC(=O)N[C@@H](C)C(=O)N[C@H]1CSCc2cc3cc(c2)CSC[C@H](NC(=O)[C@H](Cc2c[nH]c4ccccc24)NC(=O)[C@H](Cc2ccccc2)NC(=O)[C@@H]2CCCN2C(=O)CNC(=O)[C@H](Cc2c[nH]c4ccccc24)NC(=O)[C@@H]2CCCN2C1=O)C(=O)N1CCC[C@H]1C(=O)N[C@@H](C(C)C)C(=O)N[C@@H](CC(N)=O)C(=O)N[C@@H](CCCNC(=N)N)C(=O)N1CCC[C@H]1C(=O)NCC(=O)N[C@H](C(N)=O)CSC3 [A71]
Ki (Human EphA2 [2]; read-out: Ki, nM ± 95% CI Human EphA2 Fluorescent Peptide Compound 18, Table 6, fluorescent peptide Compound 18): 11.9 ± 7.51 nM

CC(C)[C@@H]1NC(=O)[C@@H]2CCCN2C(=O)[C@@H]2CSCc3cc(cc(c3)CSC[C@H](NC(=O)[C@H](C)N)C(=O)N3CCC[C@H]3C(=O)N[C@@H](Cc3c[nH]c4ccccc34)C(=O)NCC(=O)N3CCC[C@H]3C(=O)N[C@@H](C)C(=O)N[C@@H](Cc3c[nH]c4ccccc34)C(=O)N2)CSC[C@@H](C(=O)N[C@@H](C)C(N)=O)NC(=O)CNC(=O)[C@@H]2CCCN2C(=O)[C@H](CCCNC(=N)N)NC(=O)[C@H](CC(N)=O)NC1=O [A44]
Ki (Human EphA2 [2]; read-out: Human EphA2 (Ki, nM ± 95% CI) Fluorescent Peptide Compound 1, Table 4, fluorescent peptide Compound 1): 164 nM
Ki (Human EphA2 [2]; read-out: Human EphA2 (Ki, nM ± 95% CI) Fluorescent Peptide Compound 12, Table 4, fluorescent peptide Compound 12): 128 ± 28.2 nM

CSCC[C@@H]1NC(=O)[C@@H](NC(C)=O)CSCc2cc3cc(c2)CSC[C@H](NC(=O)[C@H](CC(C)C)NC(=O)[C@H](Cc2c[nH]c4ccccc24)NC(=O)[C@H](CC(=O)O)NC(=O)[C@H](CC(N)=O)NC1=O)C(=O)N[C@@H](C)C(=O)N[C@@H](CC(C)C)C(=O)NCC(=O)N[C@@H](Cc1c[nH]c2ccccc12)C(=O)N[C@@H]([C@@H](C)O)C(=O)N[C@H](C(N)=O)CSC3 [A26]
Ki (Human EphA2 [2]; [4]): 71.6 ± 3.33 nM
Ki (Human EphA2 [2]; [5]): 71.6 nM

CNCC(=O)N(C)CC(=O)N[C@@H](C)C(=O)N[C@H]1CSCc2cc3cc(c2)CSC[C@H](NC(=O)[C@H](Cc2c[nH]c4ccccc24)NC(=O)[C@H](Cc2ccccc2)NC(=O)[C@@H]2C[C@H](F)CN2C(=O)CNC(=O)[C@H](Cc2c[nH]c4ccccc24)NC(=O)[C@@H]2CCCN2C1=O)C(=O)N1CCC[C@H]1C(=O)N[C@@H](C(C)C)C(=O)N[C@@H](CC(N)=O)C(=O)N[C@@H](CCCNC(=N)N)C(=O)N1CCC[C@H]1C(=O)NCC(=O)N[C@H](C(N)=O)CSC3 [A81]
Ki (Human EphA2 [2]; [3]): 294 ± 99.6 nM

CNCC(=O)N(C)CC(=O)N[C@@H](C)C(=O)N[C@H]1CSCc2cc3cc(c2)CSC[C@H](NC(=O)[C@H](Cc2c[nH]c4ccccc24)NC(=O)[C@H](Cc2ccccc2)NC(=O)[C@@H]2CCCN2C(=O)CNC(=O)[C@H](Cc2c[nH]c4ccccc24)NC(=O)[C@@H]2C[C@H](F)CN2C1=O)C(=O)N1CCC[C@H]1C(=O)N[C@@H](C(C)C)C(=O)N[C@@H](CC(N)=O)C(=O)N[C@@H](CCCNC(=N)N)C(=O)N1CCC[C@H]1C(=O)NCC(=O)N[C@H](C(N)=O)CSC3 [A75]
Ki (Human EphA2 [2]; [3]): 400 ± 90.6 nM

CC(C)[C@@H]1NC(=O)[C@@H]2CCCN2C(=O)[C@@H]2CSCc3cc(cc(c3)CSC[C@H](NC(=O)[C@H](C)NC(=O)[C@H](Cc3c[nH]cn3)NC(=O)[C@H](CC(=O)O)NC(=O)[C@H](C)N)C(=O)N3CCC[C@H]3C(=O)N[C@@H](Cc3c[nH]c4ccccc34)C(=O)NCC(=O)N3CCC[C@H]3C(=O)N[C@@H](Cc3ccccc3)C(=O)N[C@@H](Cc3c[nH]c4ccccc34)C(=O)N2)CSC[C@@H](C(=O)N[C@@H](C)C(N)=O)NC(=O)CNC(=O)[C@@H]2CCCN2C(=O)[C@H](CCCNC(=N)N)NC(=O)[C@H](CC(N)=O)NC1=O [A56]
Ki (Human EphA2 [2]; [6]): 14.4 ± 6.28 nM
